The full ranking holds about 1,800 sequences; the median of “median log2 fold change of GCK-ALFA target abundance (FLAG IP / Myc IP barcode read proportion)” is about 0.14, and the lowest 2% start at about -0.84. The list shows a part of the results.
T1: TRAF2, Q12933
T1 chain: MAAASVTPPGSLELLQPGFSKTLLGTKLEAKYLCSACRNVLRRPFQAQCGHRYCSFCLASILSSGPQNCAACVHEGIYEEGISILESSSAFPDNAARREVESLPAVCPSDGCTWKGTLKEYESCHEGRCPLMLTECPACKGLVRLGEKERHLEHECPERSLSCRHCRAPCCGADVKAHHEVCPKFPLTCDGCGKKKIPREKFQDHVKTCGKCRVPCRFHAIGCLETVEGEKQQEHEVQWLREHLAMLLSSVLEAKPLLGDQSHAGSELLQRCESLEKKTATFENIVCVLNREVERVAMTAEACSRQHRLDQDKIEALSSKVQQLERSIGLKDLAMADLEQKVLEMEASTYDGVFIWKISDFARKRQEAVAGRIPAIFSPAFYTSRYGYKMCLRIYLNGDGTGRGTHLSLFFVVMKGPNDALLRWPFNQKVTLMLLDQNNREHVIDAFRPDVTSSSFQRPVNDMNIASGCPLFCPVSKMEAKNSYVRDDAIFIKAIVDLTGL

B1: traf2_out_17_162_1548 (protein)
chain: GELEERLKELEEELEELERRAEELESLLPELPKLSKEELTDLLVEASEARRRARRLAEEIEKLKEEIGEERAEELRERAEEIAERLQRIANAIYKELEKK
B2: traf2_out_5_63_2351 (protein)
chain: SERAELTELARRADAAVRAAIAAAKAGREAELEAILDEMVADPELARTALGILKGEARYYKLLGDKPEEAAIAAELAARLEAKAAERAAAEAAAAAAAAA
B3: traf2_out_20_3_2265 (protein)
chain: EELMKKLEEELEKAEKLLKEIEPELPEEKAKELKELLEKAKKALETDKTDALVYLSELRRKTLELAEEARAAGDEELAAKLEELADEAQRAMQLLYKIIE
B4: traf2_out_9_17_2618 (protein)
chain: AAAAAAERAALLEVTDEILEELVARGLITEEQAAAIREKVRAAIEAGKSPEEVRALFLGSIASILLQDDGLSVQEAQKVVGEVYRRWRELYAARRAAAAA
B5: traf2_out_17_178_1720 (protein)
chain: SKEEYRKKISELTDKLIDLAEAAAARLLALARAEGTLSPEELAALEAARRRGSPNDTLALMRRVAPRLRSAAEAEALLADFEAQSKALAKEIAELYEKYE
B6: traf2_out_18_3_1944 (protein)
chain: AEEEIKKYTEELDEIFDEHAAWVLARAEEAAAADPRAAPLLERVKALLAQGHLGSSLTNTLVDGLRALGRTEEAAEVEEKASEFFKKASEAIDKIEEARK
B7: traf2_out_6_166_2472 (protein)
chain: SEELRKRVDEIIKKLGEYEPEVVIEAFEILAEKRSDRRALLARQLASGVRQGKKAGLKTETIISAFVDGMIALGVPIEEILELLEEVLEIAEKLAEERKK
B8: traf2_out_20_3_2246 (protein)
chain: MELREKAEKYLEEAEKLLKEVEPLLPAERAAELRELLKKAREAFKTDLTDALVYLSELRRLALELAEEARAAGDEETARLLEELAEAVGKAANHIYKIVE
B9: traf2_out_13_95_1059 (protein)
chain: SAELAKKINELADEAEERILAILDEAAKKLAGDPAAVAVLEQAKDLALNKGWTEAIALLRAAAAAHPEHKADFEATIAEIEAVRRKLGREVAKLIKEEQE
B10: traf2_out_17_178_1669 (protein)
chain: NKEEYRKKISELTDELIDLTEETGRRLLALAEAEGRLSPEELALLRAALRSGSANTLLAVARRLAPKLSSREEAQALLDEFEKEYKELSKKIAEAYEKYE
B11: traf2_out_11_169_818 (protein)
chain: EEAEKNRKINDFALELNDEAKKKLLEYALKLAKEEGLDVEEVKAIFEKHKNSSLSAVAAALIDYFRSKGKEEAAKAVLEKYEELKDEINKKVTEKIKELE
B12: traf2_out_6_166_2459 (protein)
chain: ESETLKEIREIIKELSKYSTEIIVKAFDEVAKKVDEESARILRQLKSAVEQAEKLGLDVETALTATVLGLITLGVPEETLLKLLKEVLKEAKKIAEEKEK
B13: traf2_out_20_154_1998 (protein)
chain: VSDEEIEKLSDELVEYSAKRRAYEVAALALENPEKADEIWATAYEEYKNDALMMKYLDEAKAKVEAGATLEEFKKEAEEYAKKAREYGEKLEKALEERRK
B14: traf2_out_17_162_1626 (protein)
chain: SPLEEEIAELEERLKELEEKLKELEKKAENIEKLSKEELTDLLVEASEARREALELAERIRELRKKYNRPELDELLERAEEIAEKFQRIANLFYEELLKK
B15: traf2_out_14_149_1240 (protein)
chain: SHMAELFKAAAELAEKAAKALEEVLKLLKAGKVEEAKKLLKETIKYLEEEGKKHGITISIVFKLEHILELLDKDVEEAKKAAEEAAKEAKNRAEAYKSLA
B16: traf2_out_11_169_775 (protein)
chain: EEAEKNRKINDFALELNDEAKKKLEEFALELAEKEGLDVEEIKKIFEKNKNSSLSAVAAALIEYFESKGKEEAAKAILEKYEELKEEINKKSSAFIKSLE
B17: traf2_out_6_3_2507 (protein)
chain: SDEEERKRNEEAFELASEISIENLKKAADTLLKRLKELVEDPNASDSDVLAAASALTLTLEILRKSAEKNPEKKEEAEKYIKEKEKELEELLKKWKEKRK
B18: traf2_out_20_8_2269 (protein)
chain: MSMEEKLARAADLILDAKDLVRAVIREVLADERAPAIAAEAAAAISVSVSADDTDADILLRIRERATEALTRLAERTGDPRLEEARARVAAALDAAAAAA
B19: traf2_out_15_48_1345 (protein)
chain: NTEKLQEVARQIADRADATRDAVLARLEALRARADPAEQALLDELIALVRSGATLRTVLGALEAARPRLSPELAAALAALAAEIRATLRESSRLFNEAEA

Molecular target: T1, TRAF2, Q12933
Assay: median log2 fold change of GCK-ALFA target abundance (FLAG IP / Myc IP barcode read proportion) (log2 ratio); each designed protein is fused to an ALFA-tag nanobody in HEK293 cells to bring the named protein to FLAG-tagged glucokinase (GCK); Myc marks an untargeted standard; higher = target protein stabilised (more abundant)
Conditions: target protein: 3xFLAG-MCP-GCK-ALFA reporter; HEK293 landing pad (RPLP)
Procedure, shortened: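 Sequencing of reverse-transcribed, amplified circular RNA barcodes from anti-FLAG and anti-Myc immunoprecipitates provided the readout for an ALFA-nanobody-fused binder library recombined into HEK293 landing-pad cells. Those cells were induced with 2 μg mL^−1 doxycycline, transfected with a plasmid expressing a FLAG-tagged target and a Myc-tagged standard, and lysed after 48 h. Target abundance is the per-binder median log2 ratio of FLAG to Myc barcode read proportions. Only barcodes at a proportion of ≥10^−7 in both replicates and binders with ≥3 barcodes per replicate were kept, with a 10^−6 pseudocount added before the two replicates were pooled.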

Going from B1 to B2, the “median log2 fold change” value falls from 0.22 to -0.305.

Going from B3 to B4, the “median log2 fold change” value falls from 0.516 to -0.0669.

B5 and B6 are within 0.2 log units of each other in “median log2 fold change” value: 0.2 for the first, 0.132 for the second.

Compared with B7, B8 is higher in “median log2 fold change” value: -0.148 for the first, 0.251 for the second.

B9 and B10 are within 0.2 log units of each other in “median log2 fold change” value: -0.0638 for the first, 0.0703 for the second.

B11 and B12 are within 0.2 log units of each other in “median log2 fold change” value: 0.262 for the first, 0.077 for the second.

B13 and B14 are within 0.2 log units of each other in “median log2 fold change” value: -0.0179 for the first, 0.131 for the second.

First: B15
Second: B16
The “median log2 fold change” value of the first is lower: -0.551 for the first, 0.177 for the second.

B17 and B18 are within 0.2 log units of each other in “median log2 fold change” value: -0.0319 for the first, 0.0236 for the second.

In the case of B19, the “median log2 fold change” value is reported as 0.234.

Reference: the supplement of paper PMC12632987
